{"source": "PubChem BioAssay AID588855", "about": "(National Center for Advancing Translational Sciences (NCATS), 2011)", "note": "Out of some 410,000 compounds screened, about 5,000 (1.2%) were called active. The inconclusive results got no clear call from the source; some entries with a clear call stand among them for comparison. Calls follow the shape of the dose curve; as a rule, active = well fitted inhibition curve with a large enough effect; inconclusive = small, poorly fitted or top-dose-only effect; inactive = no such curve, though single readings can be large or run the other way. Potencies of inconclusive entries are doubtful fits and often do not repeat. Potency is read from the fitted curve at half-maximal effect; tags tell the direction and shape of the fitted curve.", "data": [{"assay": "qHTS for Inhibitors of TGF-b; also: nearly all actives have a fitted effect of over 65% in size", "details": "HepG2 CAGA-GFP TGF-b/SMAD3 reporter, GFP fluorescence, 18 h, TGF-beta stimulated, 500 pg/mL final; series mostly up to 46.1 µM", "summary_of_the_method": "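Inhibition was scored as loss of TGF-beta-induced (500 pg/mL final, 18 hours, 37 degrees C) GFP in HEPG2 cells carrying a CAGA-GFP reporter, in DMEM with 1% FBS. Well GFP was summed per cell; Activity was normalised to unstimulated and stimulated DMSO wells, then concentration-response fitting.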", "values": [{"smiles": "COc1ccc(Cn2c(SCC(=O)N(C)Cc3ccccc3)nc3ccccc32)cc1", "Potency": "inconclusive: 35.5 µM [inhibitor, single point]"}, {"smiles": "CC(C)(C)C1CCc2oc3ccc(NS(=O)(=O)c4ccc(C(=O)O)cc4)cc3c2C1", "note": "(stereo not given)", "Potency": "active: 22.4 µM"}, {"smiles": "O=C(Nc1ccc2c(c1)OCCO2)C(CCc1ccccc1)N1CCN(C/C=C/c2ccccc2)CC1", "note": "(stereo not given)", "Potency": "inconclusive: 35.5 µM [inhibitor, single point]"}, {"smiles": "CCCC(=O)NC(=S)Nc1cccc(NC(=O)c2ccc(Cl)cc2Cl)c1", "Potency": "inactive"}, {"smiles": "COc1ccc(CCNc2ncnc3c2cnn3-c2cc(Cl)ccc2C)cc1", "Potency": "inconclusive: 35.5 µM [inhibitor, single point]"}, {"smiles": "O=C(CSc1nc2ccccc2[nH]1)Nc1cccc(S(=O)(=O)N2CCOCC2)c1", "Potency": "inactive"}, {"smiles": "COc1ccccc1CNC(=O)c1cn(C)c2ccc(S(=O)(=O)N(C)C3CCCCC3)cc2c1=O", "Potency": "inactive"}, {"smiles": "CCOc1ccc(NS(=O)(=O)c2ccc3c(c2)CCCN3C(=O)C2CCC2)cc1", "Potency": "inconclusive: 5.01 µM [inhibitor, partial curve, poor fit]"}, {"smiles": "Cc1ccc2nc(COc3ccccc3NC(=O)c3ccc(F)cc3)cc(=O)n2c1", "Potency": "inactive"}, {"smiles": "Cc1ccc2c(=O)cc(C(=O)Nc3ccc(S(=O)(=O)Nc4ncccn4)cc3)oc2c1C", "Potency": "inactive"}, {"smiles": "Cc1cc(C)c(NC(=O)C2CCN(c3nn4c(=O)cc(C)nc4s3)CC2)c(C)c1", "Potency": "inconclusive: 0.501 µM [inhibitor, full curve, poor fit]"}, {"smiles": "O=C(CSC1=Nc2ccccc2N=C(c2ccc(F)cc2)C1)Nc1ccccc1", "Potency": "inconclusive: 0.1 µM [inhibitor, full curve, poor fit]"}, {"smiles": "Cc1ccc(NC(=O)c2cc(-n3cnnc3)ccc2Cl)cc1", "Potency": "inactive"}, {"smiles": "CCn1c(SCc2nc(-c3ccc(OC)c(OC)c3)no2)nnc1-c1cccs1", "Potency": "inactive"}, {"smiles": "CNC(=S)N/N=C/c1ccc(-c2cccc(C(=O)O)c2)o1", "Potency": "inactive"}, {"smiles": "Cc1[nH]n(-c2ccc(Cl)cc2)c(=O)c1C(=O)c1ccccc1", "Potency": "inconclusive: 22.4 µM [inhibitor, partial curve, poor fit]"}, {"smiles": "Cc1[nH]n(-c2cccc([N+](=O)[O-])c2)c(=O)c1-c1ccccc1", "Potency": "inconclusive: 22.4 µM [inhibitor, single point]"}, {"smiles": "Cc1onc(-c2ccccc2Cl)c1C(=O)Nc1nnc(-c2cccc([N+](=O)[O-])c2)s1", "Potency": "inconclusive: 1 µM [inhibitor, full curve]"}, {"smiles": "CCS(=O)(=O)Nc1cccc(C2=NN(S(=O)(=O)c3ccccc3)C(c3cccs3)C2)c1", "note": "(stereo not given)", "Potency": "inactive"}, {"smiles": "C#CCOCCOCCOCCNc1nc(N2CCN(C(=O)CCCCCCCCCCNC(=O)[C@@H](CCC(=O)O)n3cc(CCCCCN)nn3)CC2)nc(N2CCN(C(=O)CCCCCCCCCCNC(=O)[C@H](CCCCN)n3cc(C[C@@H](C)CC)nn3)CC2)n1", "Potency": "inconclusive: 35.5 µM [inhibitor, single point]"}]}]}
